Test results from the RNAGym collection of RNA variant scans (doi:10.1073/pnas.2313332121).
This sample is rich in variants without activity.

B1: TPR 5TU (parent)
chain: GGAUCUUCUCGAUCUAACAAAAAAGACAAAUCUGCCACAAAGCUUGAGAGCAUCUUCGGAUGCAGAGGCGGCAGCCUUCGGUGGCGCGAUAGCGCCAACGUUCUCAACUAUGACACGCAAAACGCGUGCUCCGUUGAAUGGAGUUUAUCAUG

Variants of: B1
Test: polymerase ribozyme fitness, log enrichment relative to wild type (log ratio); higher = more active; in vitro selection for triplet polymerase activity
How it was run: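 Each subunit of a heterodimeric triplet polymerase ribozyme was mutagenized into a library by PCR, transcribed, and subjected to one round of in vitro selection, run in triplicate. Libraries were annealed with a biotinylated primer, the partner subunit and triplets, incubated frozen at −7 °C, and extended constructs were gel-excised, captured on streptavidin beads and recovered by RT-PCR. Input and output libraries were sequenced on Illumina, keeping genotypes with ≥10 input reads and ≥1 read per output. Fitness is log base 2 of genotype enrichment divided by wild-type enrichment, from inverse-variance-weighted replicate averages.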
For C72G C76A U82C C95U A107U A137G, the “polymerase ribozyme fitness (log ratio)” value was ≤ -4.2. For G62A, the “polymerase ribozyme fitness (log ratio)” value was -0.367. For G62C, the “polymerase ribozyme fitness (log ratio)” value was -1.07. With G62U the “polymerase ribozyme fitness (log ratio)” value was -0.546. In the case of C72A U104G A106U C131U U145C U146A, the “polymerase ribozyme fitness (log ratio)” value is reported as ≤ -4.2. With C69A U104G the “polymerase ribozyme fitness (log ratio)” value was -3.09. With U61C C93A the “polymerase ribozyme fitness (log ratio)” value was ≤ -4.2. In the case of C69G C85U G86A, the “polymerase ribozyme fitness (log ratio)” value is reported as -3.62. With G62A G81U C87G C93U U130C G140C U144G the “polymerase ribozyme fitness (log ratio)” value was ≤ -4.2. For C69G A106C A137C, the “polymerase ribozyme fitness (log ratio)” value was ≤ -4.2. In the case of G68C U78C C96A A98G G143A, the “polymerase ribozyme fitness (log ratio)” value is reported as ≤ -4.2. For A66G G100C A107C C114U A122C G133C, the “polymerase ribozyme fitness (log ratio)” value was ≤ -4.2. With A66C C118U U130G the “polymerase ribozyme fitness (log ratio)” value was ≤ -4.2. In the case of C69A G83C, the “polymerase ribozyme fitness (log ratio)” value is reported as -3.07. With G67A G86A C114U U145G the “polymerase ribozyme fitness (log ratio)” value was ≤ -4.2. For G70U A73U A89G C95G G141U, the “polymerase ribozyme fitness (log ratio)” value was ≤ -4.2. With C69G C96A C105G C108G A113U the “polymerase ribozyme fitness (log ratio)” value was ≤ -4.2. For C63G G65A G71A C87A C118U U145C, the “polymerase ribozyme fitness (log ratio)” value was ≤ -4.2. For G71A G84U C132U, the “polymerase ribozyme fitness (log ratio)” value was ≤ -4.2. For A66G C93A C95A C96U C116U, the “polymerase ribozyme fitness (log ratio)” value was ≤ -4.2. In the case of G67C G86C C96A G112U A113U G126U, the “polymerase ribozyme fitness (log ratio)” value is reported as ≤ -4.2. In the case of G68A G88U C103G C108A C118U U139G, the “polymerase ribozyme fitness (log ratio)” value is reported as ≤ -4.2. For G71U G83U, the “polymerase ribozyme fitness (log ratio)” value was -3.48. For A66G C95U A138C, the “polymerase ribozyme fitness (log ratio)” value was ≤ -4.2. For C69A C85U U101G U148G, the “polymerase ribozyme fitness (log ratio)” value was ≤ -4.2. For A66U A98U U101A, the “polymerase ribozyme fitness (log ratio)” value was ≤ -4.2. For U61G G136C, the “polymerase ribozyme fitness (log ratio)” value was -2.91. With C63G G92U U102C A120G the “polymerase ribozyme fitness (log ratio)” value was -1.8. In the case of C63G A64G G65A G92U C108G C116G, the “polymerase ribozyme fitness (log ratio)” value is reported as ≤ -4.2. In the case of C69A C108A, the “polymerase ribozyme fitness (log ratio)” value is reported as ≤ -4.2. With G62U C96U the “polymerase ribozyme fitness (log ratio)” value was -1.14. In the case of G62U U77A G86U C99G, the “polymerase ribozyme fitness (log ratio)” value is reported as ≤ -4.2. For G68C G84U, the “polymerase ribozyme fitness (log ratio)” value was ≤ -4.2. With C69U C93A U102G C103G the “polymerase ribozyme fitness (log ratio)” value was ≤ -4.2. For A64G G80U C85U C93U G94U C103U, the “polymerase ribozyme fitness (log ratio)” value was -4.18. In the case of G62A A98U, the “polymerase ribozyme fitness (log ratio)” value is reported as -1.42. In the case of G62A C93G U130C, the “polymerase ribozyme fitness (log ratio)” value is reported as -3.01. In the case of U61G A64C C75G C93U, the “polymerase ribozyme fitness (log ratio)” value is reported as ≤ -4.2. In the case of G68A G88U C93A C116G C118A, the “polymerase ribozyme fitness (log ratio)” value is reported as ≤ -4.2. For G62C C85A C99G U151G, the “polymerase ribozyme fitness (log ratio)” value was ≤ -4.2. For C63U G126C, the “polymerase ribozyme fitness (log ratio)” value was 0.627. In the case of C63G C69G, the “polymerase ribozyme fitness (log ratio)” value is reported as -1.75. In the case of C69U G84U A91G A113U, the “polymerase ribozyme fitness (log ratio)” value is reported as ≤ -4.2. In the case of G68A G81U C96G A107C G124C, the “polymerase ribozyme fitness (log ratio)” value is reported as ≤ -4.2. In the case of C72G C96A C105G, the “polymerase ribozyme fitness (log ratio)” value is reported as ≤ -4.2. In the case of A66G G68U G71U G81A G92U A137G, the “polymerase ribozyme fitness (log ratio)” value is reported as ≤ -4.2. With G67C C87U the “polymerase ribozyme fitness (log ratio)” value was ≤ -4.2. In the case of C63A C75U G92C C129U C132G, the “polymerase ribozyme fitness (log ratio)” value is reported as ≤ -4.2. With U61G C87A A150G the “polymerase ribozyme fitness (log ratio)” value was ≤ -4.2. For G70A G100A A121G U151A, the “polymerase ribozyme fitness (log ratio)” value was ≤ -4.2. For U61C G80C C85U C99U U146A, the “polymerase ribozyme fitness (log ratio)” value was ≤ -4.2. For G65C C87A A97C U109A C149U, the “polymerase ribozyme fitness (log ratio)” value was ≤ -4.2. For G67C A73G C87A A97C G143A, the “polymerase ribozyme fitness (log ratio)” value was ≤ -4.2. In the case of G68A G88A U102A A137G, the “polymerase ribozyme fitness (log ratio)” value is reported as ≤ -4.2. For G70C C75A U109G A137C, the “polymerase ribozyme fitness (log ratio)” value was ≤ -4.2. For G68A A106C A120G A138C, the “polymerase ribozyme fitness (log ratio)” value was ≤ -4.2. In the case of C72G A89G G92A C114G, the “polymerase ribozyme fitness (log ratio)” value is reported as ≤ -4.2. In the case of C69A A73C G84U U109C C118A, the “polymerase ribozyme fitness (log ratio)” value is reported as ≤ -4.2. In the case of G62A A91U U104G A142C, the “polymerase ribozyme fitness (log ratio)” value is reported as ≤ -4.2. In the case of A66G G67A, the “polymerase ribozyme fitness (log ratio)” value is reported as ≤ -4.2. For G68A C87A A106C G117U, the “polymerase ribozyme fitness (log ratio)” value was ≤ -4.2. For G68A C93U A98U G117U, the “polymerase ribozyme fitness (log ratio)” value was ≤ -4.2. With A64C A107C the “polymerase ribozyme fitness (log ratio)” value was ≤ -4.2. For G70A A91U C123U A138C C149U, the “polymerase ribozyme fitness (log ratio)” value was ≤ -4.2. For C69U G86C A89U, the “polymerase ribozyme fitness (log ratio)” value was ≤ -4.2. With G67U A73G U90A A97C U111G the “polymerase ribozyme fitness (log ratio)” value was ≤ -4.2. In the case of G71U U144G, the “polymerase ribozyme fitness (log ratio)” value is reported as -1.84. With G68A A91C A142C the “polymerase ribozyme fitness (log ratio)” value was ≤ -4.2. With A66C G84A C87U the “polymerase ribozyme fitness (log ratio)” value was ≤ -4.2. In the case of C72G C108U A137C, the “polymerase ribozyme fitness (log ratio)” value is reported as ≤ -4.2. For U61C C69U G70U G86U A107C, the “polymerase ribozyme fitness (log ratio)” value was ≤ -4.2. For C69G C93A, the “polymerase ribozyme fitness (log ratio)” value was ≤ -4.2. In the case of G70A C85A, the “polymerase ribozyme fitness (log ratio)” value is reported as ≤ -4.2. For G71C C87G C93A A107G C149U, the “polymerase ribozyme fitness (log ratio)” value was ≤ -4.2. In the case of A64C G65A A107G G112U G124A G141U U148G, the “polymerase ribozyme fitness (log ratio)” value is reported as ≤ -4.2. For C63U G83C U102A A142G A150C, the “polymerase ribozyme fitness (log ratio)” value was ≤ -4.2. For G70U A91U G92A C95U U135G A138G, the “polymerase ribozyme fitness (log ratio)” value was ≤ -4.2. For C69A A91C A122U A142C, the “polymerase ribozyme fitness (log ratio)” value was ≤ -4.2. In the case of U61G G74C C79U G88C U102G C105U U111G G126A U144A, the “polymerase ribozyme fitness (log ratio)” value is reported as ≤ -4.2. For A64G G83A U135C, the “polymerase ribozyme fitness (log ratio)” value was ≤ -4.2. For A64U G68A C79A, the “polymerase ribozyme fitness (log ratio)” value was ≤ -4.2. With U61G G92A the “polymerase ribozyme fitness (log ratio)” value was ≤ -4.2. In the case of A66C G70A G71A G100U G143A U148G, the “polymerase ribozyme fitness (log ratio)” value is reported as ≤ -4.2. In the case of C63U A98G G126U C129G, the “polymerase ribozyme fitness (log ratio)” value is reported as ≤ -4.2.
